Several values for one entry are separate records, joined by “and”; a condition that tells them apart may be missing. Identical values can stand only once. Hit rate of the full screen: of about 71,000 compounds, about 1,800 (2.5%) were called active. Inconclusive results, whose numbers are uncertain, are shown with a selection of clear calls. Calls come from the whole dose curve; as a rule, active = well fitted activation curve with a large enough effect in the signal ratio, with a control signal flat (not every such curve was filed as active); inconclusive = small, poorly fitted or top-dose-only effect, or effect the other way, or a change in a side signal; inactive = flat fitted curve, though single readings scatter; the % refers to the signal ratio. A potency beside an inconclusive call is a rough fit, not a confirmed value.
assay: Cell signaling CRE-BLA (Fsk stim); conditions: CHO CRE-bla reporter (cAMP response element driving beta-lactamase), forskolin EC10, beta-lactamase ratio; activity change, negative = inhibition: at 38.2 µM (top of the series) unless noted; for activity change, negative = inhibition: % of control where 0% means no effect
In short: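 Beta-lactamase reporter under a cAMP responsive element in CHO cells; compounds tested in titration series against EC10 NKH 477, 3 h at 37 °C. Read-out: CCF4 FRET ratio 460nm/530nm (excitation 405nm) giving %Activity, fitted to AC50.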
Potency is the fitted concentration of half-maximal effect; tags give direction and shape of the fitted curve.

SMILES	activity change, negative = inhibition	Potency
Cc1ccc(Cl)cc1NC(=O)COC(=O)C1CCCC1	inactive	
CCCS(=O)(=O)N1CCCC(C(=O)NCCc2ccc(OC)c(OC)c2)C1 (stereo unspecified)	inactive	
O=c1c(CCc2ccccc2)nc2cnc(Nc3ccccc3)nc2n1Cc1cccs1	inconclusive: -12.2% [fluorescent]	
CCn1nc(NC(=O)c2ccco2)c2cc3ccc(C)cc3nc21		inconclusive: 12.6 µM [rising, partial curve]
Cc1cc(=O)n2[nH]c(C)c(-c3ccc(Cl)cc3)c2n1	inactive	
O=C1C2C3C=CC(C3)C2C(=O)N1CNc1ccccc1 (stereo unspecified)		inconclusive: 0.0251 µM [rising, partial curve, poor fit]
CCOc1cc(C2C(C(=O)c3ccco3)=C(O)C(=O)N2CCc2ccccc2)ccc1O (stereo unspecified)	inconclusive: 20.7% [cytotoxic]	
COc1ccc(OC)c(S(=O)(=O)N2CCC(C(=O)NCc3ccccc3OC)CC2)c1	inactive	
Cc1ccc(C)c(N2CCN(C(=O)CCCCn3c(=O)[nH]c4ccccc4c3=O)CC2)c1	inconclusive: 6.84%	
COc1ccc(-c2cc(C(=O)OCC(=O)N(C)C)c3ccccc3n2)cc1		inconclusive: 12.6 µM [rising, partial curve]
CN1[C@H](CC(=O)c2ccccc2)CCC[C@H]1C[C@@H](O)c1ccccc1		inconclusive: 10 µM [falling, partial curve]
COc1ccccc1CNc1ncnc2ccc(-c3ccccc3OC)cc12	inconclusive: -17.7%	
c1ccc(-n2nnc3c(N4CCOCC4)ncnc32)cc1		inconclusive: 10 µM [rising, partial curve]
O=S(=O)(c1ccccc1)N1CCC2(CCN(c3ccccc3)CC2)CC1	inactive	
O=C1c2ccccc2C(=O)N1CCc1nc2ccccc2c(=O)n1CCCn1ccnc1		inconclusive: 12.6 µM [rising, partial curve]
Cc1cccc(CCN(Cc2cc3cccc(C)c3[nH]c2=O)C(=O)N2CCOCC2)c1	inactive	
O=C(NCC1CCCO1)c1c(O)c2cccc3c2n(c1=O)CC3 (stereo unspecified)	inactive	
CN1C(=O)c2oc3ccccc3c(=O)c2C1c1ccccn1 (stereo unspecified)		inconclusive: 12.6 µM [rising, single point]
CN(C)C(=O)c1ccc(-c2cc(NCc3ccccc3)ncn2)cc1		inconclusive: 10 µM [rising, single point]
CC(C)(C)c1cc(C(=O)O)nn1-c1ccccc1		inconclusive: 12.6 µM [falling, single point]
Cc1nnc(SCC(=O)Nc2ccc3c(c2)OCCO3)n1CC1CCCO1 (stereo unspecified)	inconclusive: -27.2%	
CC1CN(c2ncnc3c2oc2ccccc23)CC(C)O1 (stereo unspecified)		inconclusive: 12.6 µM [rising, partial curve]
CCOC(=O)c1cc2c(=O)n3ccccc3nc2n(CCCOC)c1=NC(=O)C(C)(C)C		inconclusive: 12.6 µM [rising, partial curve]
COc1cc(C(=O)N(Cc2cc3cc(C)ccc3[nH]c2=O)CC2CCCO2)cc(OC)c1OC (stereo unspecified)	inconclusive: 4.01%	
CC1=CS/C(=C(/C#N)C(=O)N2CCOCC2)N1c1ccccc1		inconclusive: 12.6 µM [rising, single point]
COC(=O)c1ccccc1NC(=O)C1CCCN(S(C)(=O)=O)C1 (stereo unspecified)	inconclusive: 28.7%	

SMILES	activity change, negative = inhibition	Potency
Cn1c(=O)cc(SCC(=O)N2CCCC2)c2cc(Cl)ccc21	inconclusive: -1.36%	
CCOC(=O)CCCNC(=O)COC(=O)c1cc(C)cc(C)c1		inconclusive: 3.98 µM [falling, single point]
COc1cc(C(=O)N2CCN(c3cc(Cl)ccc3Cl)CC2)cc(OC)c1OC		active: 2.51 µM
CSc1nc(N2CCN(CCO)CC2)c2sc3nc(-c4ccco4)c4c(c3c2n1)CCC4		inconclusive: 5.01 µM [rising, partial curve]
COc1ccc(OC)c(NC(=O)CN2C(=O)C3(OCCCO3)c3ccccc32)c1	inconclusive: 15.8%	
CCCNc1ncnc2sc(C)c(C)c12		inconclusive: 15.8 µM [rising, single point]
CC1(C)C2CCC13CS(=O)(=O)N[C@@H]3C2 (stereo partly specified)	inactive	
CC(C)CC1N=C2c3ccccc3N=C(SCc3cc(=O)n4ccccc4n3)N2C1=O (stereo unspecified)		active: 3.16 µM
CCn1c2ccccc2c2nc3cc(OC)c(OC)cc3nc21		active: 5.01 µM
CNc1nc(-c2ccc(N(C)C)cc2)nc2ccccc12		inconclusive: 12.6 µM [rising, partial curve]
CCOC(=O)N1CCC(NC(=O)Cn2c3c(c(-c4ccccc4Cl)cc2=O)CCC3)CC1	inactive	
O=C(Nc1scc(-c2cccs2)c1C(=O)O)c1cccs1	inactive	
CCOC(=O)c1[nH]cnc1C(=O)Nc1ccccn1		inconclusive: 12.6 µM [rising, partial curve]
COc1ccccc1-c1cncnc1NCc1cccnc1	inactive	
O=C(COC(=O)c1cnccn1)c1ccc2c(c1)CCCC2	inactive	
CCn1c(CSc2nc3ccccc3s2)nc2ccccc21	inactive: 29.8% [at 7.6 µM]	
Cc1ccc2nc(-c3cccc(S(=O)(=O)N(C)C)c3)cn2c1		inconclusive: 20 µM [rising, single point]
CN(C)Cc1ccccc1-c1nc(NC2CC2)c2ccccc2n1	inactive	
CC1(C)CC(=O)C=C(Nc2ccc(S(N)(=O)=O)cc2)C1	inconclusive: 16%	
Cn1c(=O)c(-c2ccccc2)nc2cncnc21	inactive	
COc1ccc(Oc2ncc3nc(C)c(=O)n(Cc4ccc(F)cc4)c3n2)cc1		inconclusive: 5.01 µM [rising, partial curve]
COc1ccc(CC(C)N2CCN(c3ccccc3OC)CC2)cc1OC (stereo unspecified)	inconclusive: -5.95% [at 7.6 µM]	
O=P(O)(O)C(O)C(F)(F)C(F)(F)C(F)(F)C(F)F (stereo unspecified)	inactive	
COc1ccc(C(=O)C(CN2CCOCC2)c2ccccc2)cc1F (stereo unspecified)		inconclusive: 6.31 µM [falling, partial curve]
O=C1Nc2ccc(I)cc2/C1=C/c1cc(Br)c(O)c(Br)c1	inconclusive: 4.02% and inconclusive: -29.6%	
